Data as given in the supplement of paper PMC12423691.
The other results are listed elsewhere or left out. Binding of human transcription factors and regulators to the viral nucleoprotein by AlphaScreen, crude cell-free proteins, amounts not normalised, one pass. Fold of the Venus control; higher = more signal. No active / inactive call. Single-pass screen; sequences are the whole Swiss-Prot entries looked up by name.

B1: DVL2, O14641 (protein)
chain: MAGSSTGGGGVGETKVIYHLDEEETPYLVKIPVPAERITLGDFKSVLQRPAGAKYFFKSMDQDFGVVKEEISDDNARLPCFNGRVVSWLVSSDNPQPEMAPPVHEPRAELAPPAPPLPPLPPERTSGIGDSRPPSFHPNVSSSHENLEPETETESVVSLRRERPRRRDSSEHGAGGHRTGGPSRLERHLAGYESSSTLMTSELESTSLGDSDEEDTMSRFSSSTEQSSASRLLKRHRRRRKQRPPRLERTSSFSSVTDSTMSLNIITVTLNMEKYNFLGISIVGQSNERGDGGIYIGSIMKGGAVAADGRIEPGDMLLQVNDMNFENMSNDDAVRVLRDIVHKPGPIVLTVAKCWDPSPQAYFTLPRNEPIQPIDPAAWVSHSAALTGTFPAYPGSSSMSTITSGSSLPDGCEGRGLSVHTDMASVTKAMAAPESGLEVRDRMWLKITIPNAFLGSDVVDWLYHHVEGFPERREARKYASGLLKAGLIRHTVNKITFSEQCYYVFGDLSGGCESYLVNLSLNDNDGSSGASDQDTLAPLPGATPWPLLPTFSYQYPAPHPYSPQPPPYHELSSYTYGGGSASSQHSEGSRSSGSTRSDGGAGRTGRPEERAPESKSGSGSESEPSSRGGSLRRGGEASGTSDGGPPPSRGSTGGAPNLRAHPGLHPYGPPPGMALPYNPMMVVMMPPPPPPVPPAVQPPGAPPVRDLGSVPPELTASRQSFHMAMGNPSEFFVDVM
B2: TSC22D2, O75157 (protein)
chain: MSKMPAKKKSCFQITSVTTAQVATSITEDTESLDDPDESRTEDVSSEIFDVSRATDYGPEEVCERSSSEETLNNVGDAETPGTVSPNLLLDGQLAAAAAAPANGGGVVSARSVSGALASTLAAAATSAPAPGAPGGPQLAGSSAGPVTAAPSQPPTTCSSRFRVIKLDHGSGEPYRRGRWTCMEYYERDSDSSVLTRSGDCIRHSSTFDQTAERDSGLGATGGSVVVVVASMQGAHGPESGTDSSLTAVSQLPPSEKMSQPTPAQPQSFSVGQPQPPPPPVGGAVAQSSAPLPPFPGAATGPQPMMAAAQPSQPQGAGPGGQTLPPTNVTLAQPAMSLPPQPGPAVGAPAAQQPQQFAYPQPQIPPGHLLPVQPSGQSEYLQQHVAGLQPPSPAQPSSTGAAASPATAATLPVGTGQNASSVGAQLMGASSQPSEAMAPRTGPAQGGQVAPCQPTGVPPATVGGVVQPCLGPAGAGQPQSVPPPQMGGSGPLSAVPGGPHAVVPGVPNVPAAVPAPSVPSVSTTSVTMPNVPAPLAQSQQLSSHTPVSRSSSIIQHVGLPLAPGTHSAPTSLPQSDLSQFQTQTQPLVGQVDDTRRKSEPLPQPPLSLIAENKPVVKPPVADSLANPLQLTPMNSLATSVFSIAIPVDGDEDRNPSTAFYQAFHLNTLKESKSLWDSASGGGVVAIDNKIEQAMDLVKSHLMYAVREEVEVLKEQIKELVERNSLLERENALLKSLSSNDQLSQLPTQQANPGSTSQQQAVIAQPPQPTQPPQQPNVSSA
B3: CREB3L4, Q8TEY5 (protein)
chain: MDLGIPDLLDAWLEPPEDIFSTGSVLELGLHCPPPEVPVTRLQEQGLQGWKSGGDRGCGLQESEPEDFLKLFIDPNEVYCSEASPGSDSGISEDPCHPDSPPAPRATSSPMLYEVVYEAGALERMQGETGPNVGLISIQLDQWSPAFMVPDSCMVSELPFDAHAHILPRAGTVAPVPCTTLLPCQTLFLTDEEKRLLGQEGVSLPSHLPLTKAEERVLKKVRRKIRNKQSAQDSRRRKKEYIDGLESRVAACSAQNQELQKKVQELERHNISLVAQLRQLQTLIAQTSNKAAQTSTCVLILLFSLALIILPSFSPFQSRPEAGSEDYQPHGVTSRNILTHKDVTENLETQVVESRLREPPGAKDANGSTRTLLEKMGGKPRPSGRIRSVLHADEM
B4: PURA, Q00577 (protein)
chain: MADRDSGSEQGGAALGSGGSLGHPGSGSGSGGGGGGGGGGGGSGGGGGGAPGGLQHETQELASKRVDIQNKRFYLDVKQNAKGRFLKIAEVGAGGNKSRLTLSMSVAVEFRDYLGDFIEHYAQLGPSQPPDLAQAQDEPRRALKSEFLVRENRKYYMDLKENQRGRFLRIRQTVNRGPGLGSTQGQTIALPAQGLIEFRDALAKLIDDYGVEEEPAELPEGTSLTVDNKRFFFDVGSNKYGVFMRVSEVKPTYRNSITVPYKVWAKFGHTFCKYSEEMKKIQEKQREKRAACEQLHQQQQQQQEETAAATLLLQGEEEGEED
B5: ZNF585B, Q52M93 (protein)
chain: MPASWTSPQKSSALAPEDHGSSYEGSVSFRDVAIDFSREEWRHLDLSQRNLYRDVMLETYSHLLSVGYQVPKPEVVMLEQGKEPWALQGERPRHSCPGEKLWDHNQHRKIIGYKPASSQDQKIYSGEKSYECAEFGKSFTWKSQFKVHLKVPTGEKLYVCIECGRAFVQKPEFITHQKTHMREKPYKCNECGKSFFQVSSLFRHHRIHTGEKLYECSECGKGFPYNSDLSIHEKIHTGERHHECTDCGKAFTQKSTLKIHQKIHTGERSYICIECGQAFIQKTQLIAHRRIHSGEKPYECNNCGKSFISKSQLQVHQRVHTRVKPYICTEYGKVFSNNSNLITHEKIQSREKSSICTECGKAFTYRSELIIHQRIHTGEKPYECSDCGRAFTQKSALTVHQRIHTGEKSYICMKCGLAFIRKAHLITHQIIHTGEKPYKCGHCGKLFTSKSQLHVHKRIHTGEKPYVCNKCGKAFTNRSNLITHQKTHTGEKSYICSKCGKAFTQRSDLITHQRIHTGEKPYECNTCGKAFTQKSNLNIHQKIHTGERQYECHECGKAFNQKSILIVHQKIHTGEKPYVCTECGRAFIRKSNFITHQRIHTGEKPYECSDCGKSFTSKSQLLVHQPVHTGEKPYVCAECGKAFSGRSNLSKHQKTHTGEKPYICSECGKTFRQKSELITHHRIHTGEKPYECSDCGKSFTKKSQLQVHQRIHTGEKPYVCAECGKAFSNRSNLNKHQTTHTGDKPYKCGICGKGFVQKSVFSVHQSSHA
B6: RUNX2, Q13950 (protein)
chain: MASNSLFSTVTPCQQNFFWDPSTSRRFSPPSSSLQPGKMSDVSPVVAAQQQQQQQQQQQQQQQQQQQQQQQEAAAAAAAAAAAAAAAAAVPRLRPPHDNRTMVEIIADHPAELVRTDSPNFLCSVLPSHWRCNKTLPVAFKVVALGEVPDGTVVTVMAGNDENYSAELRNASAVMKNQVARFNDLRFVGRSGRGKSFTLTITVFTNPPQVATYHRAIKVTVDGPREPRRHRQKLDDSKPSLFSDRLSDLGRIPHPSMRVGVPPQNPRPSLNSAPSPFNPQGQSQITDPRQAQSSPPWSYDQSYPSYLSQMTSPSIHSTTPLSSTRGTGLPAITDVPRRISDDDTATSDFCLWPSTLSKKSQAGASELGPFSDPRQFPSISSLTESRFSNPRMHYPATFTYTPPVTSGMSLGMSATTHYHTYLPPPYPGSSQSQSGPFQTSSTPYLYYGTSSGSYQFPMVPGGDRSPSRMLPPCTTTSNGSTLLNPNLPNQNDGVDADGSHSSSPTVLNSSGRMDESVWRPY

The binders below were run against nucleoprotein N of Crimean-Congo hemorrhagic fever virus (assay: AlphaScreen luminescence signal relative to Venus negative control (fold); higher = stronger binding to CCHFV N).
Description: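 AlphaScreen binding of cell-free made, FLAG-GST-tagged human transcription factors and regulators (crude translation products) to biotinylated N protein; signal as fold of the FLAG-GST-Venus control. One pass.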

B1 was tested. Which AlphaScreen luminescence signal did it give?
Its AlphaScreen luminescence signal is 1.81.

For B2, which AlphaScreen luminescence signal is on record?
The AlphaScreen luminescence signal was 1.16.

With B3 as the binder, how does the AlphaScreen luminescence signal read?
Its AlphaScreen luminescence signal is 3.81.

How did the AlphaScreen luminescence signal turn out when B4 was run?
Its AlphaScreen luminescence signal is 5.12.

With B5 as the binder, how does the AlphaScreen luminescence signal read?
The AlphaScreen luminescence signal was 4.37.

For B6, which AlphaScreen luminescence signal is on record?
Its AlphaScreen luminescence signal is 1.95.
